From a compilation of properties of binary mixtures (doi:10.1007/s10953-014-0283-z)
Some of these densities may be calculated back from excess volumes.

Experiment: xn = mol fraction of the nth substance listed
Conditions: 100 kPa

Compound: CC[NH3+].O=[N+]([O-])[O-] + O
- mass density (293.15 K, x2 = 0): 1210.6 kg/m3
- mass density (293.15 K, x2 = 0.2597): 1195.4 kg/m3
- mass density (293.15 K, x2 = 0.6776): 1158.7 kg/m3
- mass density (293.15 K, x2 = 0.7889): 1134.7 kg/m3
- mass density (293.15 K, x2 = 0.8895): 1089.1 kg/m3
- mass density (293.15 K, x2 = 0.9499): 1052.3 kg/m3
- mass density (298.15 K, x2 = 0): 1206 kg/m3
- mass density (298.15 K, x2 = 0.1088): 1198.1 kg/m3
- mass density (298.15 K, x2 = 0.2597): 1192.6 kg/m3
- mass density (298.15 K, x2 = 0.3682): 1187.2 kg/m3
- mass density (298.15 K, x2 = 0.47): 1179.5 kg/m3
- mass density (298.15 K, x2 = 0.579): 1169.4 kg/m3
- mass density (298.15 K, x2 = 0.6776): 1155.1 kg/m3
- mass density (298.15 K, x2 = 0.9499): 1049.8 kg/m3
- mass density (303.15 K, x2 = 0): 1201.4 kg/m3
- mass density (303.15 K, x2 = 0.3682): 1184.2 kg/m3
- mass density (303.15 K, x2 = 0.47): 1176.3 kg/m3
- mass density (303.15 K, x2 = 0.579): 1165.9 kg/m3
- mass density (303.15 K, x2 = 0.6776): 1151.4 kg/m3
- mass density (303.15 K, x2 = 0.9499): 1047.3 kg/m3
- mass density (308.15 K, x2 = 0): 1196.5 kg/m3
- mass density (308.15 K, x2 = 0.2597): 1186.8 kg/m3
- mass density (308.15 K, x2 = 0.3682): 1181.3 kg/m3
- mass density (308.15 K, x2 = 0.579): 1162.5 kg/m3
- mass density (308.15 K, x2 = 0.6776): 1147.8 kg/m3
- mass density (308.15 K, x2 = 0.7889): 1123.8 kg/m3
- mass density (308.15 K, x2 = 0.8895): 1079.7 kg/m3
- mass density (308.15 K, x2 = 0.9499): 1044.9 kg/m3
- mass density (313.15 K, x2 = 0.1088): 1187.8 kg/m3
- mass density (313.15 K, x2 = 0.2597): 1183.9 kg/m3
- mass density (313.15 K, x2 = 0.3682): 1178.4 kg/m3
- mass density (313.15 K, x2 = 0.47): 1170 kg/m3
- mass density (313.15 K, x2 = 0.6776): 1144.1 kg/m3
- mass density (313.15 K, x2 = 0.7889): 1120.1 kg/m3
- mass density (313.15 K, x2 = 0.8895): 1076.6 kg/m3
- mass density (313.15 K, x2 = 0.9499): 1042.4 kg/m3
- mass density (318.15 K, x2 = 0): 1188.8 kg/m3
- mass density (318.15 K, x2 = 0.1088): 1184.7 kg/m3
- mass density (318.15 K, x2 = 0.2597): 1181 kg/m3
- mass density (318.15 K, x2 = 0.3682): 1175.4 kg/m3
- mass density (318.15 K, x2 = 0.579): 1155.7 kg/m3
- mass density (318.15 K, x2 = 0.6776): 1140.5 kg/m3
- mass density (318.15 K, x2 = 0.8895): 1073.5 kg/m3
- mass density (318.15 K, x2 = 0.9499): 1039.9 kg/m3
